Reference: PMC6919601, “Identification of Plasmodium dipeptidyl aminopeptidase allosteric inhibitors by high throughput screening” (PLoS ONE, 2019)
The whole screen tested about 110,000 compounds, of which about 230 (0.21%) showed an effect of 50% or more. The list shows a part of the results.

Each compound was assayed against DPAP1 (Plasmodium falciparum, UniProt Q8IIJ9) (assay: primary screen, percent inhibition; read by cleavage of a fluorogenic dipeptide substrate; higher = more effect of the substance).
Set-up: species or system P. falciparum D10 trophozoite lysates; single well
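Further: 30 min substrate incubation versus DMSO and 10 µM JCP410 controls.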

Sequence of DPAP1 (Q8IIJ9 whole entry, looked up): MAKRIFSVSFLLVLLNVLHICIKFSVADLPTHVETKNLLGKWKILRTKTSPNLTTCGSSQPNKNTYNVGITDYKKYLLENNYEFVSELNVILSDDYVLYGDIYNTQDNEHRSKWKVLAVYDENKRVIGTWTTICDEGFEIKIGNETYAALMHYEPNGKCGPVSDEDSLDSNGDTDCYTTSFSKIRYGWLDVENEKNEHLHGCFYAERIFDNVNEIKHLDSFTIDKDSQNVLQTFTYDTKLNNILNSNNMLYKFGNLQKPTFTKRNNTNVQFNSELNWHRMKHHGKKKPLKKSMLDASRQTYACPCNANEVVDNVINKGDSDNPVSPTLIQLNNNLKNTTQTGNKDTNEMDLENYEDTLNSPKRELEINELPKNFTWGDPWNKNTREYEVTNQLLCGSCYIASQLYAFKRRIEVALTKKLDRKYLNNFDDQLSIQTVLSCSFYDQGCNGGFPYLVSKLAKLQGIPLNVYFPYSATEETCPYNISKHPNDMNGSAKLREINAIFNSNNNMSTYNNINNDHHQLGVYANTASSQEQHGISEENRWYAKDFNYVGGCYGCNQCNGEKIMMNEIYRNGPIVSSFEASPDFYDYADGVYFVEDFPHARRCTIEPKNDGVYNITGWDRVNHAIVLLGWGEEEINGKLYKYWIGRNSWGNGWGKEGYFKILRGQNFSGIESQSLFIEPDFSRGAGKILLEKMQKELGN

| Structure (SMILES) | % Inhibition @ 10 uM |
| --- | --- |
| CCOC(=O)/C(C#N)=C/c1c(Oc2ccc(Br)cc2)nc2c(C)cccn2c1=O | 2% |
| COc1ccc(CN2CCN(Cc3cccc(F)c3)CC2)cc1OC | -7.09% |
| O=S(=O)(c1ccc(Br)s1)N1CCCN(Cc2c(Cl)cccc2Cl)CC1 | 1.91% |
| Cc1cc(O)c(NC(=O)c2ccccc2Br)cc1C | -3.28% |
| CC1CCC2C(=O)N(CNc3ccc(Br)cc3)C(=O)C2C1 (stereo not drawn) | 0.389% |
| COc1ccc2c(Sc3ccc(C)cc3)c(C(=O)N3CCOCC3)[nH]c2c1 | -3.1% |
| CN(Cc1ccccc1)C(=O)Cn1cnc2onc(-c3ccc(Cl)cc3)c2c1=O | -3.31% |
| Cc1cc(NCCCN2CCOCC2)nc(-c2ccccc2O)n1 | -5.78% |
| CCC(=O)Nc1ccc(NC(=O)COc2cccc(C)c2)cc1 | 6.65% |
| Cc1cc(C(F)(F)F)nc(NC(C)c2ccccc2)n1 (stereo not drawn) | -7.33% |
| O=c1c2cccnc2n(Cc2ccccc2F)c(=O)n1CCc1c[nH]c2ccccc12 | 7.84% |
| OC1(c2ccc(Br)cc2)CCN(C2Cc3ccccc3C2)CC1 | 1.88% |
| C=CCOc1ccc2ccccc2c1CNCc1cccnc1 | -5.06% |
| NC(=O)CSc1nc(SCC(N)=O)c2cnn(-c3ccccc3)c2n1 | -0.661% |
| COc1ccc2nc(C)c(CN(C)C3CCN(C)CC3)c(O)c2c1 | -4.93% |
| CCc1ccccc1NC(=O)C(C)SCc1ccccc1 (stereo not drawn) | 0.851% |
| CCOC(=O)C1=C(c2ccccc2)Nc2ncnn2C1c1ccc(OC)cc1 (stereo not drawn) | 0.487% |
| Cc1ccc(NC(=O)C(NC(=O)C2CCCCC2)C(C)C)nc1 (stereo not drawn) | -6.5% |
| N#CCNC(=O)[C@@H](COCc1ccccc1)NC(=O)OCc1ccccc1 | 0.079% |
| CCc1ccc(CNCc2c(C(=O)O)n(Cc3ccccc3C)c3ccccc23)cc1 | -3.53% |
| CN(C)c1ccc(C(=O)c2ccc(O)cc2O)cc1 | 4.44% |

| Structure (SMILES) | % Inhibition @ 10 uM |
| --- | --- |
| O=C(O)c1ccc(S(=O)(=O)c2cc(C(=O)O)ccc2C(=O)O)cc1 | 0.937% |
| Cc1nn(CC(=O)NC(C)c2ccccc2)c(=O)c2cc3sccc3n12 (stereo not drawn) | 3.4% |
| Cc1ccc(C2=NN(CC(=O)NCCN(C)C)C(=O)CC2)cc1 | 3.79% |
| Cc1ccc(S(=O)(=O)N(CC(=O)N2CCC(C)CC2)c2cc(C)cc(C)c2)cc1 | 1.62% |
| CC1CC(C)(C)N(C(=S)Nc2ccccc2)N1c1ccccc1 (stereo not drawn) | -0.744% |
| CC(=O)N1CCC2(CC1)Oc1ccccc1C(=O)N2CC(=O)NC1CCCCC1 | -1.6% |
| COc1cc(N2CCCC2)c(OC)cc1/C=C1\NC(=O)N(CC(=O)Nc2ccccc2)C1=O | 9.02% |
| O=C(Nc1sc2c(c1C(=O)NCC1CCCO1)CCCC2)c1ccc(Br)cc1 (stereo not drawn) | -1.24% |
| COc1ccccc1-c1nnc2sc(COc3ccccc3Cl)nn12 | 2.89% |
| O=C(c1ccccc1Cl)N1N=C(c2ccncc2)CC1(O)C(F)(F)F (stereo not drawn) | 3.01% |
| Cc1[nH]c2ccccc2c1SCCNC(=O)c1cccc(Br)c1 | 4.02% |
| CCN(CC)S(=O)(=O)c1cccc(C(=O)Nc2cccc(O)c2)c1 | 1.64% |
| COc1cc(CN2CCN(Cc3ccccc3Br)CC2)cc(OC)c1OC | -5.26% |
| Cc1cccn2c(=O)c3cc(C(=O)N4CCCCC4)c(=N)n(CCN4CCOCC4)c3nc12 | 0.279% |
| Cc1nc2c(-c3ccccc3)c(C)nn2c(C)c1CC(=O)NCCC1=CCCCC1 | 4.14% |
| CCOC(=O)c1c(NC(=O)c2cc(-c3cccc(O)c3)on2)sc(C(C)=O)c1C | -7.85% |
| c1cncc(C2OCC3(CO2)COC(c2cccnc2)OC3)c1 (stereo not drawn) | -0.413% |
| CCN1C(=O)/C(=C\c2ccc(OCC(N)=O)c(Br)c2)S/C1=N/c1ccccc1 | -6.38% |
| Cc1ccc(NCc2nc3ccccc3n2C)cc1C | -7.96% |
| CCc1ccc2occ(CC(=O)Nc3sc4c(c3C(=O)OC)CCCC4)c2c1 | 4.18% |
| N#CC1=C(N)OC2=C(C(=O)CC(c3ccco3)C2)C12C(=O)Nc1ccc(Br)cc12 (stereo not drawn) | 0.446% |

| Structure (SMILES) | % Inhibition @ 10 uM |
| --- | --- |
| Cc1ccc(/C=C/C(=O)Nc2ncc(Cc3ccc(F)cc3)s2)o1 | 7.76% |
| CC(=O)Nc1ccc(S(=O)(=O)N2CCc3ccccc32)cc1 | -2.42% |
| CN(C)c1cc(N)c2c(n1)CCCC2 | 3.05% |
| O=C(CCCc1nnc2n3nc(-c4ccccc4)nc3c3ccccc3n12)NC1CCCCC1 | -6.52% |
| c1ccc2c(c1)[nH]c1cncnc12 | -1.22% |
| Cc1ccc(-n2nc3c(=O)n(CCCC(=O)NCc4ccccc4Cl)nc(C)c3c2C)cc1 | -2.68% |
| CCn1ncc(C2=NOC(C(=O)N3CCC4(CC3)OCCO4)C2)c1C (stereo not drawn) | -10.5% |
| CCCC(=O)Nc1ccc(Cl)c(NC(=O)c2ccc(C)cc2)c1 | -3.69% |
| O=C(O)CCCCCC1CCNC(=O)N1 (stereo not drawn) | 3% |
| Cc1ccc(N(CC(=O)N2CCN(C)CC2)S(=O)(=O)c2ccc(C)cc2)cc1 | -3.28% |
| Cc1ccccc1C1=NC(C(F)(F)F)(C(F)(F)F)N=C2C=CC=CN21 | -3.76% |
| c1ccc(-n2ncnc2-c2ccc3c(c2)OCO3)cc1 | -5.44% |
| CN(C)c1ccc(/C=C/c2ccnc3ccccc23)cc1 | 3.1% |
| Cc1ccc2onc(CNC(=O)NCCN3CCc4ccccc4C3)c2c1 | 4.29% |
| CN1C(=O)CN=C(c2ccccc2)c2cc(Br)ccc21 | -0.766% |
| CC1CCCN(CCCNC(=O)c2cc3ccc4cccnc4c3[nH]2)C1 (stereo not drawn) | -0.349% |
| CCCn1c2ccccc2c2cnn(CC(=O)Nc3nc4ccc(OCC)cc4s3)c(=O)c21 | 0.958% |
| CCCN1CCN(C(=O)c2cccc3c2C(=O)N(C2CCCCC2)C3)CC1 | -0.499% |
| Cc1ccccc1Nc1nc(Cl)nc(NC(C)(C)C)n1 | -3.38% |
| CCc1ccc(-c2cn3nc(N4CCC(C(=O)NCc5cccc(Cl)c5)CC4)sc3n2)cc1 | 0.0882% |
| CCS(=O)(=O)N1CCC2(CC1)OC(=O)C(C)=C2C(=O)NCc1ccc(F)cc1 | -5.14% |
